In all, about 50,000 compounds went through this assay and about 800 (1.6%) showed an effect of 50% or more. Some of the results follow.

The assay deals with Bcl-2-like protein 10 (Homo sapiens) (UniProt Q9HD36). Kind of assay: Phenotype converters, Bcl-B/TR3 peptide binding displacement, primary biochemical FP (AID 1240).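 Also: 0% = Bcl-B with tracer peptide and DMSO and 100% = tracer peptide lacking Bcl-B.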 The settings on record: GST-Bcl-B / FITC-TR3 peptide fluorescence polarization; stronger effect = higher value; compound at 3.75 mg/L. Background: Polarisation of emitted light reports the rotation of a fluorescent probe.
Chain of UniProt Q9HD36 (Q9HD36 whole entry, looked up): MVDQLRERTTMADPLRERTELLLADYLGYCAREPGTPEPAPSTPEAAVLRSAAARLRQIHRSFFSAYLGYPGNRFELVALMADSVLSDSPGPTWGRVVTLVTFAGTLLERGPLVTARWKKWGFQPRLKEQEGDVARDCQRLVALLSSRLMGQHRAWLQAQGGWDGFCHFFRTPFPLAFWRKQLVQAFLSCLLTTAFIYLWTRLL
Take `COc1ccc(S(=O)(=O)N2CCN(Cc3cccc(C)c3)CC2)cc1`: the displacement was 2.5%.

With `CCCCOc1ccc(NC(=O)c2ccncc2)cc1`, the displacement was found to be 12.7%.

On to `COC(=O)c1ccc(C(=O)OC)c(NC(=O)COc2cccc(Br)c2)c1`, for which the displacement turned out to be 27%.

For the molecule `CCOC(=O)C1=C(C)N=c2s/c(=C\c3cc(OC)ccc3OC)c(=O)n2C1c1ccc(F)cc1` (stereo not drawn), the displacement was 12.9%.

Consider `COc1ccc(N2C(=O)S/C(=C/c3cccc(Br)c3)C2=O)cc1`, for which the displacement worked out at 10.3%.

On to `CN(C)c1cccc(C(=O)N2CCN(c3ccc(F)cc3)CC2)c1`, for which the displacement worked out at 9%.

On to `CC(=O)C(=Nc1ccc(C)cc1C)NNc1ccc(Cl)c(C(N)=O)c1`, for which the displacement was found to be 0.8%.

On to `CCC1C(=O)N=C(SCC(=O)Nc2nc(-c3ccccc3)cs2)NC1=O` (stereo not drawn), for which the displacement came to 10.1%.

As to `O=C(Nc1cccnc1)c1ccccc1[N+](=O)[O-]`, the displacement was 2.4%.

As for `COc1cc(/C=C2\SC(=S)N(NC(C)=O)C2=O)cc(OC)c1OC`, the displacement is -16.7%.

Take `Brc1ccc(Nc2nc(-c3ccncc3)nc3ccccc23)cc1`: the displacement was determined as 44.4%.

For `O=C(c1ccc(-c2ccccc2)cc1)N1CCN(Cc2ccncc2)CC1`, the displacement is 2.7%.

`O=C(CCc1ccccc1)NC1CCCCC1Cc1ccco1` (stereo not drawn): the displacement is -1.2%.

With `CN(C)c1ccc(C(O)Cc2nc3ccccc3n2C)cc1` (stereo not drawn), the displacement is -0.8%.

For `CCOc1ccc(C2=C/C(=C/c3ccc(N(C)C)cc3)C(=O)O2)cc1`, the displacement turned out to be 3.3%.

In the case of `COc1ccc(N(CC(=O)Nc2ccc(C(C)C)cc2)S(=O)(=O)c2ccc(C)cc2)c(OC)c1`, the displacement is 11.8%.

Take `O=C(/C=C/c1ccco1)Nc1cc(Cl)cc(Cl)c1`: the displacement is -3.2%.

`O=C(CCN1C(=O)/C(=C/c2cccs2)SC1=S)Nc1nc2ccccc2s1`: the displacement stood at 10.5%.

Take `CCOC(=O)COc1ccccc1/C=C1\C(=O)NC(=O)N(c2ccc(Cl)cc2)C1=O`: the displacement is -7.2%.

For `O=C1C(=Cc2ccccc2Br)C(=O)c2ccccc21`, the displacement is 18.1%.

Turning to `CCC(C(=O)OC)S(=O)(=O)c1ccc(Cl)cc1` (stereo not drawn), the displacement was found to be 0%.

Take `COc1cccc(C2C3=C(CC(C)(C)CC3=O)OC3=C2C(=O)CC(C)(C)C3)c1OCC(=O)O`: the displacement was determined as 12.3%.

Regarding `Cc1ccc(OCC(=O)NNC(=O)c2ccc(O)cc2O)c(C)c1`, the displacement is -11.3%.

Take `C/C(=N/OCC(=O)N/N=C/c1ccccc1NS(=O)(=O)c1ccc(C)cc1)c1ccccc1`: the displacement amounted to 5%.

In the case of `COC(=O)c1cccc(-n2c(C)ccc2-c2ccccc2)c1`, the displacement was -15.6%.

With `O=C1CCCC2=C1C(c1ccc(F)cc1)C1=C(CCCC1=O)O2`, the displacement was 11.2%.

For the molecule `CC1=C(C(=O)OCC2CCCO2)C(c2cccc([N+](=O)[O-])c2)NC(=O)N1` (stereo not drawn), the displacement was -3.4%.

As to `O=C(CSc1nnnn1-c1ccccc1)Nc1ccccc1Br`, the displacement was -1.9%.

For `O=C1C(=O)N(CC2CCCO2)C(c2ccc([N+](=O)[O-])cc2)/C1=C(/O)c1ccccc1` (stereo not drawn), the displacement amounted to 6.5%.

For the molecule `CCOC(=O)c1c(C)oc2ccc(OC(=O)C(C)C)cc12`, the displacement was determined as 6.2%.

On to `COc1ccc(C2(CC(=O)Nc3ccc(Br)cc3)C(=O)c3ccccc3C2=O)cc1`, for which the displacement is -12.9%.

For `O=C1NC(=O)N(c2ccc(Cl)cc2)C(=O)/C1=C/c1cc(Br)c(O)c([N+](=O)[O-])c1`, the displacement amounted to 14.7%.

Regarding `COC(=O)c1ccc(/C=C2\C(=O)NC(=O)N(c3ccc(Br)cc3)C2=O)cc1`, the displacement is -14.7%.

Regarding `COc1ccc(/C=N/n2cnnc2)cc1COc1ccccn1`, the displacement is 12.7%.

As for `Cc1cccc(N2C(=O)C(=O)/C(=C(/O)c3ccccc3)C2c2ccccc2)n1` (stereo not drawn), the displacement turned out to be 10.8%.

For the molecule `CON(C)c1nc(OCCNC(=O)COc2ccc(Cl)cc2C)nc(N(C)C)n1`, the displacement is -7.4%.

On to `COC(=O)c1ccc(/C=C/C(=O)c2ccc(F)cc2)cc1`, for which the displacement is -1.9%.

On to `O=C(CCN1C(=O)/C(=C/c2cccs2)SC1=S)Nc1cccnc1`, for which the displacement stood at 135%.

Regarding `O=C(O)c1ccc(C(=O)O)c(C(=O)NCCc2ccccc2)c1`, the displacement is 13.8%.

`COc1ccc(CNC(=O)C(=O)Nc2ccccc2C)cc1`: the displacement was found to be 5.8%.

On to `Cc1ccc(Cl)cc1NC(=O)c1cnccn1`, for which the displacement amounted to 29%.

`C=CCc1cccc2cc(C(=O)N(Cc3ccccc3)Cc3ccccc3)c(=O)oc12`: the displacement is -2.6%.

In the case of `COc1cc(OC)c(OC)cc1CN1CCN(C2CCCCCC2)CC1`, the displacement is -3.5%.

`O=C(Nc1cccc(Cl)c1)c1cccc(NC(=S)Nc2ccccc2)c1`: the displacement was -8%.

For `CCOC(=O)c1ccc2c(c1)c1c(n2CC)C(=O)CCC1`, the displacement was determined as 9%.

With `CC(=O)N1CC[C@@]2(O)CCCC[C@@H]2[C@H]1c1ccccc1`, the displacement was -14.4%.

Regarding `Cc1ccc(S(=O)(=O)NCCNc2cc(Cl)ccc2[N+](=O)[O-])cc1`, the displacement stood at 7.8%.

As to `CCc1cc2c3c(c(=O)oc2cc1O)CCCC3`, the displacement is -5.8%.

Regarding `COc1cccc(C2NC(=S)NC(C)=C2C(=O)Nc2ccccc2C)c1OC` (stereo not drawn), the displacement was 3.2%.

On to `CN(C)c1ccc(/C=N/Nc2ccc(C(F)(F)F)cn2)cc1`, for which the displacement was 1.7%.

As to `CCCS(=O)(=O)c1c(S(=O)(=O)CCC)c2cc(-c3ccncc3)ccn2c1C(=O)c1ccc(OC)cc1`, the displacement came out at 6.6%.

With `O=c1oc2cc(OC/C=C/c3ccccc3)ccc2c2ccccc12`, the displacement was determined as 9.1%.

On to `COC(=O)c1c(-c2ccc(C)c(C)c2)csc1N`, for which the displacement was found to be 13.9%.

As to `O=C1OC(Nc2cccc(Br)c2)(c2ccccc2)c2ccccc21` (stereo not drawn), the displacement is 6.8%.

Turning to `O=C(NCc1ccccc1)c1ccc(CN2CCN(Cc3ccccc3)CC2)cc1`, the displacement is 10%.

Turning to `CCOc1ccccc1NC(=O)C(=O)NCCCO`, the displacement is -10.9%.

For `O=C(O)CCCN1C(=O)C(=O)/C(=C(/O)c2ccccc2)C1/C=C/c1ccccc1` (stereo not drawn), the displacement was 2.1%.

As for `O=C(NN1C(=O)/C(=C/c2ccc([N+](=O)[O-])cc2)SC1=S)c1ccccc1Cl`, the displacement was determined as 9.3%.

For the molecule `CNc1nc2ccc(C)cn2c(=O)c1/C=N/O`, the displacement was found to be 11%.

Take `CCSc1nnc(NC(=O)c2ccco2)s1`: the displacement amounted to 5.8%.

Regarding `O=C1NC(=S)N/C1=C/c1ccc(O)c(Cl)c1`, the displacement is 16.5%.

For `Cc1cc(C)nc(SCC(=O)N2CCCCC2)n1`, the displacement is -5.9%.

With `Cc1cc2ncn(C(=O)c3ccc([N+](=O)[O-])c(C)c3)c2cc1C`, the displacement came to 12.6%.

As to `COc1cc(/C=C2/SC(=S)NC2=O)cc(Cl)c1O`, the displacement was -1.9%.

Turning to `COc1cc(/C=N\N2CCN(c3ccccc3)CC2)cc(Br)c1O`, the displacement is -7.7%.

Turning to `O=C(Nc1ccc2nn(-c3ccc(F)cc3)nc2c1)c1cc(Cl)ccc1Cl`, the displacement is -5.8%.

With `Cc1cccc(NC(=O)c2sc3ccccc3c2Cl)c1C`, the displacement was -1.5%.

As for `Cc1ccc(N=Cc2ccc(O)c(O)c2)c(C)c1`, the displacement was -7.2%.

With `Cc1ccc(-c2ccccc2)n1-c1ccc(Cl)c(C(=O)O)c1`, the displacement is -41.6%.

As for `O=C1NC(=O)C(=Cc2ccccc2OCc2ccccc2F)C(=O)N1`, the displacement is 15.2%.

With `CC1(C)CC(NC(=O)C(=O)Nc2ccc3c(c2)OCO3)CC(C)(C)N1`, the displacement is -0.4%.

With `O=C(c1ccc(-c2ccccc2)cc1)N1N=C(c2ccccc2)CC1(O)C(F)(F)F` (stereo not drawn), the displacement was -13.4%.

Consider `O=C(CSc1nc2ccccc2[nH]1)NC(c1ccccc1)c1ccccc1`, for which the displacement is -1.7%.

Regarding `CC1CCc2c(sc3nc(-c4cccs4)oc(=O)c23)C1` (stereo not drawn), the displacement turned out to be 3%.

On to `O=S(=O)(NC1CCCCCC1)c1ccc(F)cc1`, for which the displacement was -1.9%.

As to `COc1cc(OC)cc(C(=O)N2CCN(CCCc3ccccc3)CC2)c1`, the displacement is -7.8%.

On to `COc1ccc(NC(=O)CCN2C(=O)/C(=C/c3ccc(F)cc3)SC2=S)cc1`, for which the displacement stood at 12.3%.

For `COCCNC(=O)C(=O)Nc1ccc(C(C)C)cc1`, the displacement was -13%.

`Cc1ccc(OCc2nc(-c3cccc([N+](=O)[O-])c3)no2)c(Br)c1`: the displacement is -0.5%.

`COc1ccc(-c2cc(C(=O)N3CCCC3)c3ccccc3n2)c(OC)c1`: the displacement was 2.1%.

`CC(C)(C)c1ccc(C(=O)NNC(=O)C(=O)Nc2ccccc2)cc1`: the displacement was -9.3%.

Regarding `CS(=O)(=O)N(CC(=O)NCc1cccnc1)c1ccc(Oc2ccccc2)cc1`, the displacement amounted to 0.4%.

For `CC1(C)CC(=O)c2nc(NC(=O)CSC(=O)c3ccccc3)sc2C1`, the displacement was 11.1%.

On to `COC(=O)c1ccccc1N(Cc1ccccc1)S(=O)(=O)c1ccc(OC)cc1`, for which the displacement was 10.9%.

Regarding `O=C(NC(=S)Nc1cccc(-c2nc3cc(Cl)ccc3o2)c1)c1ccco1`, the displacement was 12.6%.

As for `CCOc1ccc(C(=O)NCCc2ccccc2)cc1`, the displacement was found to be 5.2%.

With `NS(=O)(=O)c1cccc(NC(=O)c2cccnc2)c1`, the displacement is -12.7%.

On to `COc1ccc(Br)cc1/C=C/C(=O)Nc1ccc(NC(=O)c2ccccc2)cc1`, for which the displacement was 2.7%.

On to `Cc1c(C(=O)NC2CCSC2=O)cccc1[N+](=O)[O-]` (stereo not drawn), for which the displacement is -3.2%.

For `CCNC(=O)C1COc2ccccc2O1` (stereo not drawn), the displacement stood at 3.8%.

Take `CCOc1cc(/C=C2\C(=O)NN(c3ccccc3)C2=O)cc([N+](=O)[O-])c1O`: the displacement turned out to be 20.6%.

`CCOC(=O)C1=C(C)N=c2s/c(=C/c3cc(Cl)c(OCC(=O)O)c(OC)c3)c(=O)n2C1c1ccccc1Cl` (stereo not drawn): the displacement was found to be 32.4%.

On to `COc1ccc(CNC(=O)C(=O)Nc2ccccc2F)cc1`, for which the displacement is -6.6%.

Take `CCCC(=Nc1ccc(OC)cc1)C1=C(O)CC(C)(C)CC1=O`: the displacement was -0.9%.

For the molecule `O=C(NC1CCCCC1)O/N=C\c1ccccc1Cl`, the displacement worked out at 12.6%.

On to `CC1CCN(CC(O)COc2ccc(OCC(O)CN3CCC(C)CC3)cc2)CC1` (stereo not drawn), for which the displacement was 4.5%.

For the molecule `O=C(O)CCCCCN1C(=O)C(=O)/C(=C(/O)c2ccc([N+](=O)[O-])cc2)C1c1ccc2c(c1)OCO2` (stereo not drawn), the displacement was -1.1%.

Take `Cc1c(C(=O)OC(C)C)sc(NC(=O)c2cc(Cl)ccc2Cl)c1C(=O)OC(C)C`: the displacement came out at 10%.

Regarding `O=C(/C=C/c1ccccc1)Nc1ccc(S(=O)(=O)N2CCOCC2)cc1`, the displacement was -13.6%.

For the molecule `O=C(Nc1ccc(O)c(-c2nc3ccccc3o2)c1)c1ccc(-c2ccc([N+](=O)[O-])cc2)o1`, the displacement was -0.4%.

As to `O=C(O)c1ccccc1/C=N/n1cnnc1`, the displacement was 7.6%.

Take `O=C(Nc1ccc(Cl)cc1)Nc1ccc([N+](=O)[O-])cc1Br`: the displacement came to 3.9%.

For `O=C(NCCN1CCOCC1)c1ccc(F)cc1`, the displacement is -7.8%.

In the case of `CCn1nnnc1-c1ccc(OC)c(S(=O)(=O)Nc2cccc(C(F)(F)F)c2)c1`, the displacement was 9%.

`COC(=O)C1=CN(Cc2ccc(C)cc2)C=C(C(=O)OC)C1c1ccc(OC(F)(F)F)cc1`: the displacement was 4.7%.

For the molecule `Cc1ccc(/C=N/NC(=O)c2ccc(Oc3ccc(C(=O)N/N=C/c4ccc(C)o4)cc3)cc2)o1`, the displacement was 3.9%.

`Cc1ccc(Cc2cnc(NC(=O)Cc3ccccc3)s2)cc1`: the displacement worked out at 3.9%.

For `O=c1oc(-c2ccc(Cl)cc2Cl)nc2ccccc12`, the displacement was 11.4%.

These data come from PubChem BioAssay AID1240 (Sanford-Burnham Center for Chemical Genomics, 2008).
